The other results are listed elsewhere or left out. At the low end of the ranking the order means little.
Each sequence was assayed against T1, ELK1 (UniProt P19419) (assay: custom PBM). Details: custom protein-binding microarray; buffer, salt, pH and temperature not stated; high values mean tight binding; double strand, one strand shown.
T1 sequence: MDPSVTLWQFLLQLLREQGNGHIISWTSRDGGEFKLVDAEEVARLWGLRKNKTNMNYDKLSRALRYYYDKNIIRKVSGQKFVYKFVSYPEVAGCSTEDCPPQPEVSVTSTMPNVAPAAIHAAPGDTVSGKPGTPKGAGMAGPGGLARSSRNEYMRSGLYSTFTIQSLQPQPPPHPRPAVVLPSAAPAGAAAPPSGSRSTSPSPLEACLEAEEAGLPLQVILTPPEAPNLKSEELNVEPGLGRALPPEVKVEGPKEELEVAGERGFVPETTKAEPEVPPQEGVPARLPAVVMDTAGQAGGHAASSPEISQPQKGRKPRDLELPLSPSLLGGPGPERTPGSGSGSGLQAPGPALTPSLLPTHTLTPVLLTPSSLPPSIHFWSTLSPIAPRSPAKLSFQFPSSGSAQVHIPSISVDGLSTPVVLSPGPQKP

Row | Sequence | binding signal (log fluorescence intensity)
1 | CTCGGACTTGACCCAACTCTGCCACGTGGGTCGTTTGTCTTGATTCGCTTGACGCTGCTG | 8.77
2 | TCCGGCTACCAGCTCCACCCCCTTCAGGCCTTGTAGGTCTTGATTCGCTTGACGCTGCTG | 8.87
3 | TACTGACTTATATACGCGAATGCACATGAATAGACCGTCTTGATTCGCTTGACGCTGCTG | 8.93
4 | CAGCTTAGGACTTCTTCCCTGAAGCAATTGATAACCGTCTTGATTCGCTTGACGCTGCTG | 8.81
5 | CACAATTTTTACAGTAATGTAGCCCGCGTAACTCCTGTCTTGATTCGCTTGACGCTGCTG | 8.91
6 | TCCCGCTACCAGCTCCACCCACTTCAGGCCTTGTAGGTCTTGATTCGCTTGACGCTGCTG | 8.83
7 | CTGGGACTTGACCCAACTCTGCCACGTGGGCCGTTTGTCTTGATTCGCTTGACGCTGCTG | 9.05
8 | TAAAGGGGAGACGGTTGTGGTAGTTCCGGGTATTAAGTCTTGATTCGCTTGACGCTGCTG | 11.2
9 | CACAATTTTTACACTAATGTAGCACGCGTAACTCCTGTCTTGATTCGCTTGACGCTGCTG | 8.83
10 | CACAATTTTTACAGTAATGTAGCACGCTTAACTCCTGTCTTGATTCGCTTGACGCTGCTG | 8.8
11 | GTGTATAGAATCCCATCCAACACACGTGTTAAAATGGTCTTGATTCGCTTGACGCTGCTG | 8.97
12 | CAGCATAGGACTTCTTCCATGAAGCAATTGATAACCGTCTTGATTCGCTTGACGCTGCTG | 8.94
13 | CGGAAGTGTCGTAAACGTCGGAAATCCGGTTCTTCTGTCTTGATTCGCTTGACGCTGCTG | 11.9
14 | CGGAAGTGTCGTAAACGTCGGATATCCGGTCCTTCTGTCTTGATTCGCTTGACGCTGCTG | 12.6
15 | CTGGGACTTGACCCAACTCTTCCACGTGGGTCGTTTGTCTTGATTCGCTTGACGCTGCTG | 8.84
16 | GATTAATTTCTGCCCTGATTCGCACGTGCCATAACAGTCTTGATTCGCTTGACGCTGCTG | 8.88
17 | GCTGCTGAGGTGCATACCCCACCGGATGTGACCCCGGTCTTGATTCGCTTGACGCTGCTG | 10.2
18 | TCCGGCTACCAGCTGCACCCACTTCAGGCCTTGTAGGTCTTGATTCGCTTGACGCTGCTG | 8.88
19 | GGAAATAGGCCCAGGGTAACACCGGAAGTGGGCTTAGTCTTGATTCGCTTGACGCTGCTG | 11.1
20 | TTGGGACTTGACCCAACTCTGCCACGTGGGTCGTTTGTCTTGATTCGCTTGACGCTGCTG | 8.85
21 | CTGGGACTTGACCCAACTCTGCCAAGTGGGTCGTTTGTCTTGATTCGCTTGACGCTGCTG | 8.89
22 | TTAAGGGAAGACGGTTGTGGTAGTTCCGGGTATTAAGTCTTGATTCGCTTGACGCTGCTG | 11.3
23 | TCCGGCTACCAGCTCCACCCACTTCTGGCCTTGTAGGTCTTGATTCGCTTGACGCTGCTG | 8.96
24 | CGTAAGTGTCGTAAACGTCGGATATCCGGTTCTTCTGTCTTGATTCGCTTGACGCTGCTG | 12.4
25 | AAAAGGGAAGACGGTTGTGGTAGTTCCGGGTATTAAGTCTTGATTCGCTTGACGCTGCTG | 11.2
26 | CGAAAGTGTCGTAAACGTCGGATATCCGGTTCTTCTGTCTTGATTCGCTTGACGCTGCTG | 12.5

Row | Sequence | binding signal (log fluorescence intensity)
27 | TACGGACTTATATATGCGAATGCACATGAATAGACCGTCTTGATTCGCTTGACGCTGCTG | 8.85
28 | CAGCATAGGACTTCTTCGCTGAAGCAATTGATAACCGTCTTGATTCGCTTGACGCTGCTG | 8.82
29 | CGGAAGTGTCGAAAACGTCGGATATCCGGTTCTTCTGTCTTGATTCGCTTGACGCTGCTG | 12.4
30 | CGGAAGTGTCGTTAACGTCGGATATCCGGTTCTTCTGTCTTGATTCGCTTGACGCTGCTG | 12.6
31 | CACAATTTCTACAGTAATGTAGCACGCGTAACTCCTGTCTTGATTCGCTTGACGCTGCTG | 9.02
32 | CAAAATTTTTACAGTAATGTAGCACGCGTAACTCCTGTCTTGATTCGCTTGACGCTGCTG | 8.94
33 | CAGCATAGGACTTCTTCCCTGAAGCAATAGATAACCGTCTTGATTCGCTTGACGCTGCTG | 8.97
34 | TGTCGGGTAAGGGAATGTACATCACGTGAATGAAAAGTCTTGATTCGCTTGACGCTGCTG | 8.92
35 | CACAATTTTTACAGTAATGTAGCACGTGTAACTCCTGTCTTGATTCGCTTGACGCTGCTG | 8.82
36 | GCTGCTGCGGTGCATACCCCACCGTATGTGACCCCGGTCTTGATTCGCTTGACGCTGCTG | 8.86
37 | GTGTATAGGATCCCATCCAACACACGTGTGAAAATGGTCTTGATTCGCTTGACGCTGCTG | 8.88
38 | TACTGACTTATATATGCGAATGCACATGAAAAGACCGTCTTGATTCGCTTGACGCTGCTG | 8.85
39 | GTGTATAGGATCCCATCCAACACACGTGTTAAAATTGTCTTGATTCGCTTGACGCTGCTG | 8.99
40 | CACAACTTTTACAGTAATGTAGCACGCGTAACTCCTGTCTTGATTCGCTTGACGCTGCTG | 8.93
41 | CACAATTTTGACAGTAATGTAGCACGCGTAACTCCTGTCTTGATTCGCTTGACGCTGCTG | 8.88
42 | GGAAAAAGGCCCAGGGTAACACCTGAAGTGGGCTTAGTCTTGATTCGCTTGACGCTGCTG | 8.97
43 | GTGTATAGGATCCCATCTAACACACGTGTTAAAATGGTCTTGATTCGCTTGACGCTGCTG | 8.71
44 | TGTCGGGTAATGGAATGTAGATCACGTGAATGAAAAGTCTTGATTCGCTTGACGCTGCTG | 8.85
45 | TAAAGGGAGGACGGTTGTGGTAGTTCCGGGTATTAAGTCTTGATTCGCTTGACGCTGCTG | 11.3
46 | TACTGACTTATATATGCGAATGCACATGAATAGTCCGTCTTGATTCGCTTGACGCTGCTG | 8.75
47 | TAAAGGGAAGACGGTTGTGGTAGATCCGGGTATTAAGTCTTGATTCGCTTGACGCTGCTG | 9.61
48 | TAAAGGGAAGACGGTTGTGGTAGTTCCGGGTTTTAAGTCTTGATTCGCTTGACGCTGCTG | 11.2
49 | TCCGGCTACCAGCTCCAACCACTTCAGGCCTTGTAGGTCTTGATTCGCTTGACGCTGCTG | 9.08
50 | CAGCATAGGACTTCATCCCTGAAGCAATTGATAACCGTCTTGATTCGCTTGACGCTGCTG | 8.95
51 | CACAATTTTTACAGTAATGTAGCACGCGTAACTCGTGTCTTGATTCGCTTGACGCTGCTG | 8.93
52 | TAAAGGGAAGCCGGTTGTGGTAGTTCCGGGTATTAAGTCTTGATTCGCTTGACGCTGCTG | 11.8
